Measurements published in patent US11365205B2 (Aurigene Discovery Technologies Limited, priority 2018, dated 2022).

Biological target: PRMT5/MEP50 Complex (Homo sapiens (Human), UniProt O14744)
Assay: PRMT5 inhibition based on TR-FRET assay
Type: biochemical
Conditions: 32 nM PRMT5:MEP50, 50 nM Histone-H4 peptide, 1 μM SAM
Source text: PRMT5 Inhibition Based on TR-FRET Assay:
Protein arginine methyltransferase 5 (PRMT5) is a type II arginine methyltransferase that catalyze mono- and symmetric demethylation on arginine residues of histone or non-histone proteins in presence of S-adenosylmethionine (AdoMet or SAM) a cofactor responsible for donating the methyl group. PRMT5 is reported to be overexpressed in several human cancers. To identify compounds that inhibit the PRMT5 and decrease its activity, a TR-FRET based assay has been established. Time-resolved fluorescence resonance energy transfer (TR-FRET) HTS assays are homogeneous proximity assays where the interaction of two dye-labeled binding partners is detected by the energy transfer between a donor and an acceptor dye and the subsequent light emission by the acceptor dye. PRMT5 catalyzes Histone H4 peptide which is biotin tagged to the Lysine amino acid at carboxyl end, in presence of S-adenosyl-1-methionine (SAM) to methylate the peptide. The antibody specific to mono methylated H4 peptide (H4R3) with Ig conjugate binds to the methylated peptide, indirectly binding to the Europium lanthanide. […]
The compound dilutions were prepared as 7.5% DMSO stock solutions in assay buffer. […] The plates were then read on Victor-3 with Excitation at 340 nm and Emissions collected at 615 and 665 nm in TR-FRET protocol. […]

Chain of UniProt O14744 (O14744 whole entry): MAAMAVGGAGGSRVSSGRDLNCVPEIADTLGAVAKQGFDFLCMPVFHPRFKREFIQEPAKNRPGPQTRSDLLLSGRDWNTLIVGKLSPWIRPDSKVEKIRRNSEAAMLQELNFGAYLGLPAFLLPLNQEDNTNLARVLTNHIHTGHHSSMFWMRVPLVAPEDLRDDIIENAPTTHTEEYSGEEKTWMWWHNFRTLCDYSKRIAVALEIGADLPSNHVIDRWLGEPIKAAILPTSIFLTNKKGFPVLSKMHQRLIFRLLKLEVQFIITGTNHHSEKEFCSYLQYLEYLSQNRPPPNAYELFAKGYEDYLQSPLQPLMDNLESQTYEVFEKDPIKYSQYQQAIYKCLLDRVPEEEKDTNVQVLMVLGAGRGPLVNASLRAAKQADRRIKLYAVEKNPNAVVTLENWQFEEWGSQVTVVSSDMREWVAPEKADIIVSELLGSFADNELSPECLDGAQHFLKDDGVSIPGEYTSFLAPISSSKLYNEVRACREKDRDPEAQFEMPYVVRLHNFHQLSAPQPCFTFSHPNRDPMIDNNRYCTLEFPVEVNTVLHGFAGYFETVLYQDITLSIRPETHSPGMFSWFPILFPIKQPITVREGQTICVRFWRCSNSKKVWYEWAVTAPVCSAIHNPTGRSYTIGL
Chain of UniProt O14744 (Q9BQA1 whole entry partner): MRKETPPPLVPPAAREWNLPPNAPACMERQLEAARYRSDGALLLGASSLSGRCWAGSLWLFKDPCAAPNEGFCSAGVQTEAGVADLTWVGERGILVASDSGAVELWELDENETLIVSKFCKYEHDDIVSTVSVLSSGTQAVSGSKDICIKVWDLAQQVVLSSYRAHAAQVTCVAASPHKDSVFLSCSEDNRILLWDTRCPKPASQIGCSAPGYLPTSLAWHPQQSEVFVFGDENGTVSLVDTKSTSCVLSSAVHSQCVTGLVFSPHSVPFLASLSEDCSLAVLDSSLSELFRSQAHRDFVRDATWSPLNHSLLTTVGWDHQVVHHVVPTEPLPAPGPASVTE

SMILES | IC50 [µM]
Cc1ccc(CN2CC3(CCC3)N(CC(O)CN3CCc4ccccc4C3)C2=O)cn1 (centres unmarked) [Example 9, 5-(3-(3,4-dihydroisoquinolin-2(1H)-yl)-2-hydroxypropyl)-7-((6-methylpyridin-3-yl)methyl)-5,7-diazaspiro[3.4]octan-6-one] | 0.23
CS(=O)(=O)c1ccc(CN2CCN(CC(O)CN3CCc4ccccc4C3)C2=O)cc1 (centres unmarked) [Example 11, 1-(3-(3,4-Dihydroisoquinolin-2(1H)-yl)-2-hydroxypropyl)-3-(4-(methyl-sulfonyl)benzyl)imidazolidin-2-one] | 0.22
